Reference: PubChem BioAssay (NCATS)
Where “and” joins values, the source holds several entries; their conditions need not be identical. Equal values may be shown once. Inconclusive means that the source gave no clear call. Such entries were picked first, then a sample of the others. Where the call is inconclusive, the potency comes from a doubtful curve fit. Calls of active or inactive are those of the source. Calls follow the shape of the dose curve; as a rule, active = well fitted curve in the direction sought with a large enough effect; inconclusive = small, poorly fitted or top-dose-only effect, or another doubt; inactive = no such curve, though single readings can be large; an effect the other way counts as inactive or inconclusive.

What was measured:
Hek293T = assay: Primary qHTS to identify gynecologic anti-cancer compounds using libraries of approved drugs and bioactive compounds (AID 1345084); settings: Gynecologic cancer cell panel viability, ATPlite luminescence, 48 h, control line for the selectivity index; series mostly up to 57.5 µM; also: nearly all actives have a fitted effect of over 55% in size
Outline: (§1)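 48 h compound exposure at 37 C, 5% CO2; five-point qHTS. ATPlite luminescence readout of cell ATP.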

JEG-3 = assay: as above; settings: Gynecologic cancer cell panel viability, ATPlite luminescence, 48 h; series mostly up to 57.5 µM
Outline: as §1

OV90 = assay: as above; settings: Gynecologic cancer cell panel viability, ATPlite luminescence, 48 h; series mostly up to 57.5 µM
Outline: as §1

PA-1 = assay: as above; settings: Gynecologic cancer cell panel viability, ATPlite luminescence, 48 h; series mostly up to 57.5 µM
Outline: as §1

SKOV3 = assay: as above; settings: Gynecologic cancer cell panel viability, ATPlite luminescence, 48 h; series mostly up to 57.5 µM
Outline: as §1

Tov-21-G = assay: as above; settings: Gynecologic cancer cell panel viability, ATPlite luminescence, 48 h; series mostly up to 57.5 µM
Outline: as §1

Tov112D = assay: as above; settings: Gynecologic cancer cell panel viability, ATPlite luminescence, 48 h; series mostly up to 57.5 µM
Outline: as §1

[1] = qHTS assay to identify inhibitors of the type 1 interferon - major histocompatibility complex class I in skeletal muscle: Counter screen cell viability and HiBit confirmation (AID 1347412); settings: iHSKM muscle cells + IFN-b, HiBiT or CellTiter-Glo, 24 h; also: nearly all actives have a fitted effect of over 60% in size; as to activity change, negative = inhibition: % is scaled to controls: 0 for no effect and ±100 for the full control effect
Outline: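 CRISPR HLA-B*08:01-HiBit immortalized human myoblasts (C25cl48) stimulated with 4 ng/ml IFN-beta and compounds (12-point 1:3, top 46 uM final) for 24 h at 37 C. Duplicate plates read by HiBit lytic luminescence or CellTiter Glo ATP.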

astro = assay: Drug repurposing screens with cells derived from glioblastoma tumor samples (AID 1345199); settings: viability, ATP luminescence, 48 h; series mostly up to 45.9 µM; also: nearly all actives have a fitted effect of over 40% in size
Outline: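 Four patient lines of CD133+ GBM neurospheres were screened at several concentrations; hits were retested in those lines plus three slower-growing GBM lines, using 48-hour treatment and ATP-based viability.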
Potency is read from the fitted curve at half-maximal effect; tags tell the direction and shape of the fitted curve.

| SMILES | Potency (Hek293T) | Potency (JEG-3) | Potency (OV90) | Potency (PA-1) | Potency (SKOV3) | Potency (Tov-21-G) | Potency (Tov112D) | activity change, negative = inhibition ([1]; Viability, at 45.9 µM (top of the series)) | Potency ([1]; Viability) | Potency (astro) | Potency ([1]; HiBiT) |
| --- | --- | --- | --- | --- | --- | --- | --- | --- | --- | --- | --- |
| C[C@@H]1CCO[C@H]2Cn3cc(C(=O)NCc4ccc(F)cc4F)c(=O)c(O)c3C(=O)N12 | inconclusive: 35.5 µM [cytotoxic, single point] | inactive | inconclusive: 22.4 µM [cytotoxic, partial curve, poor fit] | inconclusive: 39800 nM [cytotoxic, partial curve, poor fit] | inconclusive: 39.8 µM [cytotoxic, single point] | active: 25.1 µM | inconclusive: 31.6 µM [cytotoxic, partial curve] |  |  |  |  |
| Cc1ccc(Nc2cc(-c3cccc(N4C(=O)c5ccccc5C4=O)c3)ncn2)cc1NS(C)(=O)=O | inconclusive: 39.8 µM [cytotoxic, single point] | inconclusive: 10 µM [cytotoxic, partial curve] | inactive | inconclusive: 15800 nM [cytotoxic, partial curve] |  |  |  |  |  |  |  |
| Cc1nc(Nc2n[nH]c3c2CN(C(=O)N[C@H](CN(C)C)c2ccccc2)C3(C)C)c2sccc2n1 | active: 3.55 µM | inconclusive: 39.8 µM [cytotoxic, partial curve, poor fit] | active: 1.58 µM | inconclusive: 316 nM | active: 7.08 µM | inconclusive: 3.55 µM [cytotoxic, partial curve, poor fit] |  | inactive: 5.01% |  |  |  |
| CC(C)C[C@H](NC(=O)[C@H](CCc1ccccc1)NC(=O)CN1CCOCC1)C(=O)N[C@@H](Cc1ccccc1)C(=O)N[C@@H](CC(C)C)C(=O)[C@@]1(C)CO1 | active: 0.251 µM |  | active: 0.251 µM | active: 89.1 nM | active: 0.251 µM | active: 0.251 µM | active: 0.708 µM |  | inconclusive: 0.0497 µM [cytotoxic, full curve] |  |  |
| CNCCCC12CCC(c3ccccc31)c1ccccc12 | inconclusive: 15.8 µM [cytotoxic, single point] | inconclusive: 39.8 µM [rising, single point] | active: 17.8 µM and inconclusive: 12.6 µM [cytotoxic, partial curve] | inconclusive: 15.8 µM [cytotoxic, partial curve, poor fit] and inconclusive: 35.5 µM [cytotoxic, single point] | inconclusive: 35.5 µM [cytotoxic, single point] and active: 11.2 µM |  |  |  |  | inconclusive: 35.5 µM [inhibitor, partial curve] |  |
| COCCOc1nc(-c2ccc(Cl)c(Cl)c2)n(-c2ccc(NC(=O)CCl)cc2)n1 | inconclusive: 39.8 µM [cytotoxic, single point] | inconclusive: 28.2 µM [cytotoxic, single point] |  | inconclusive: 39800 nM [cytotoxic, single point] | inconclusive: 25.1 µM [cytotoxic, single point] | active: 5.62 µM | inconclusive: 39.8 µM [cytotoxic, single point] |  | active: 7.87 µM |  | active: 3.52 µM |
| COc1cc(C(C)=O)ccc1OCCCN1CCC(c2noc3cc(F)ccc23)CC1 | inconclusive: 39.8 µM [cytotoxic, single point] |  | inconclusive: 28.2 µM [cytotoxic, single point] | inactive | inconclusive: 31.6 µM [cytotoxic, single point] |  |  |  |  |  |  |
| CN1CCC(=C2c3ccccc3C=Cc3ccccc32)CC1 | inconclusive: 39.8 µM [cytotoxic, single point] |  | inconclusive: 39.8 µM [cytotoxic, single point] | inactive |  |  |  |  |  |  |  |
| CCCOc1ccc2nc(NC(=O)OC)[nH]c2c1 | inconclusive: 0.316 µM [cytotoxic, full curve] | active: 1 µM | inconclusive: 0.631 µM [cytotoxic, full curve] | active: 282 nM | inconclusive: 0.158 µM [cytotoxic, full curve, poor fit] |  | active: 0.316 µM |  |  | inconclusive: 0.708 µM [inhibitor, full curve] | inconclusive: 0.991 µM [inhibitor, full curve] |
| CN(C)C1CCN(C(=O)c2ccc(NC(=O)Nc3nc(N4CCOCC4)nc(N4CCOCC4)n3)cc2)CC1 | active: 0.891 µM | inconclusive: 0.708 µM [cytotoxic, full curve] | active: 0.141 µM | inconclusive: 224 nM [cytotoxic, full curve, poor fit] | active: 0.1 µM | inconclusive: 0.447 µM | inconclusive: 0.251 µM [cytotoxic, full curve] |  |  |  |  |
